Measurements as given in publication PMC8531446, “Light-triggered and phosphorylation-dependent 14-3-3 association with NON-PHOTOTROPIC HYPOCOTYL 3 is required for hypocotyl phototropism” (Nature Communications, 2021).
No constants are given. Whether binding was seen depends on the method and setting. For some of these results: Binding seen in cells or lysates may run through a third protein. Tags and fused reporters may be left off the sequences shown. Some binding calls cover weakened binding; strength is not graded here.

Experiments:
[1] = target: T1, Arabidopsis 14-3-3 isoform epsilon, yeast two-hybrid fusion (Arabidopsis) (UniProt P48347); assay: two-hybrid; constructs in pGADT7 and pGBKT7 co-transformed into yeast strain PJ69-4A; ADE2 reporter, growth on SD medium lacking adenine
T1 sequence: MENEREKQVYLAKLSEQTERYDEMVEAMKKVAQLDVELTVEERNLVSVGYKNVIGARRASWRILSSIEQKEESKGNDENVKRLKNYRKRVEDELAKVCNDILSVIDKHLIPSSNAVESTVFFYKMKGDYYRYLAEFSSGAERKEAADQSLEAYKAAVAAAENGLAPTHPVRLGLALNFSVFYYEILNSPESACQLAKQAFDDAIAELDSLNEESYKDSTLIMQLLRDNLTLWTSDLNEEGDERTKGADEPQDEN

[2] = target: T2, Arabidopsis 14-3-3 isoform omega, yeast two-hybrid fusion (Arabidopsis) (UniProt Q01525); assay: as above
T2 sequence: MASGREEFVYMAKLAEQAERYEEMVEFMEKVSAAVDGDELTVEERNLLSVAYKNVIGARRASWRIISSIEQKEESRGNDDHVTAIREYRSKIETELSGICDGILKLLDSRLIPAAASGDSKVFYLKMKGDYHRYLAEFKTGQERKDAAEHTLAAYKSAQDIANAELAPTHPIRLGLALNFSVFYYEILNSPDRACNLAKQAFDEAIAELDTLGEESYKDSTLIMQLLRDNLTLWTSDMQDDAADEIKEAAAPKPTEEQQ

[3] = target: T3, 14-3-3 omega:mEGFP (Arabidopsis) (UniProt Q01525); assay: co-IP; N. benthamiana leaves co-expressing both proteins (35S promoter), kept under constant light for 42 h or dark-adapted and treated with blue light (10 μmol m^-2 s^-1, 40 min); crude extract precipitated with GFP beads (GFP-Trap); anti-GFP and anti-RFP blots
T3 sequence: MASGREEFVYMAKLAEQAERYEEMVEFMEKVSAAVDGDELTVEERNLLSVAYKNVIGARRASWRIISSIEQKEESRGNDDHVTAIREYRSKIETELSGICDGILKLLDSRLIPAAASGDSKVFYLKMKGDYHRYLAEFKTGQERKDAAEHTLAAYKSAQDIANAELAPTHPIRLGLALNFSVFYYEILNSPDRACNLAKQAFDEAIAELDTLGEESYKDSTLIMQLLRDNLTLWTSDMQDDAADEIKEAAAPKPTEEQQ

B1: NON-PHOTOTROPIC HYPOCOTYL 3 (NPH3), yeast two-hybrid fusion (protein, UniProt Q9FMF5 1-746)
chain: MMWESESDGGVGVGGGGGREYGDGVLSSNKHGGVKTDGFELRGQSWFVATDIPSDLLVKIGDMNFHLHKYPLLSRSGKMNRLIYESRDPDPTILILDDLPGGPEAFELASKFCYGVPVDLTATNISGLRCAAEYLEMTEDLEEGNLIFKTEAFLSYVVLSSWRDSILVLKSCEKLSPWAENLQIVRRCSESIAWKACSNPKGIRWAYTGKAPSPSTTNFAGSSPRWNESKDSSFYCSPSRNTNSQPVPPDWWFEDVSILRIDHFVRVITAIKVKGMRFELLGAVIMHYAGKWLPGLIKEGGVAIAPAMSSAIGGGLGLGGDEMSISCGSNSSGGSSGPDWKGGLHMVLSAGKTNGHQDSVACLAGLGISPKDQRMIVESLISIIPPQKDSVTCSFLLRLLRAANMLKVAPALITELEKRVGMQFEQATLQDLLIPGYNNKGETMYDVDLVQRLLEHFLVQEQTEGSSPSRMSPSPSQSMYADIPRGNNNNGGGGGGNNQNAKMRVARLVDSYLTEVARDRNLPLTKFQVLAEALPESARTCDDGLYRAIDSYLKAHPTLSEHERKRLCRVMDCQKLSMDACMHAAQNERLPLRVVVQVLFSEQVKISNALANTSLKESTTLGEAMGTYQPMIPNRKTLIEATPQSFQEGWAAAKKDINTLKFELETVKTKYVELQNEMEVMQRQFEKTGKVKNTPSSSAWTSGWKKLSKLTKMSGQESHDISSGGEQAGVDHPPPRKPRRWRNSIS
binding [1]: binds
binding [2]: binds

B2: NPH3ΔN54, yeast two-hybrid fusion (domain or fragment, UniProt Q9FMF5 55-746)
chain: DLLVKIGDMNFHLHKYPLLSRSGKMNRLIYESRDPDPTILILDDLPGGPEAFELASKFCYGVPVDLTATNISGLRCAAEYLEMTEDLEEGNLIFKTEAFLSYVVLSSWRDSILVLKSCEKLSPWAENLQIVRRCSESIAWKACSNPKGIRWAYTGKAPSPSTTNFAGSSPRWNESKDSSFYCSPSRNTNSQPVPPDWWFEDVSILRIDHFVRVITAIKVKGMRFELLGAVIMHYAGKWLPGLIKEGGVAIAPAMSSAIGGGLGLGGDEMSISCGSNSSGGSSGPDWKGGLHMVLSAGKTNGHQDSVACLAGLGISPKDQRMIVESLISIIPPQKDSVTCSFLLRLLRAANMLKVAPALITELEKRVGMQFEQATLQDLLIPGYNNKGETMYDVDLVQRLLEHFLVQEQTEGSSPSRMSPSPSQSMYADIPRGNNNNGGGGGGNNQNAKMRVARLVDSYLTEVARDRNLPLTKFQVLAEALPESARTCDDGLYRAIDSYLKAHPTLSEHERKRLCRVMDCQKLSMDACMHAAQNERLPLRVVVQVLFSEQVKISNALANTSLKESTTLGEAMGTYQPMIPNRKTLIEATPQSFQEGWAAAKKDINTLKFELETVKTKYVELQNEMEVMQRQFEKTGKVKNTPSSSAWTSGWKKLSKLTKMSGQESHDISSGGEQAGVDHPPPRKPRRWRNSIS
binding [1]: binds
binding [2]: binds

B3: NPH3ΔC51, yeast two-hybrid fusion (domain or fragment, UniProt Q9FMF5 1-695)
chain: MMWESESDGGVGVGGGGGREYGDGVLSSNKHGGVKTDGFELRGQSWFVATDIPSDLLVKIGDMNFHLHKYPLLSRSGKMNRLIYESRDPDPTILILDDLPGGPEAFELASKFCYGVPVDLTATNISGLRCAAEYLEMTEDLEEGNLIFKTEAFLSYVVLSSWRDSILVLKSCEKLSPWAENLQIVRRCSESIAWKACSNPKGIRWAYTGKAPSPSTTNFAGSSPRWNESKDSSFYCSPSRNTNSQPVPPDWWFEDVSILRIDHFVRVITAIKVKGMRFELLGAVIMHYAGKWLPGLIKEGGVAIAPAMSSAIGGGLGLGGDEMSISCGSNSSGGSSGPDWKGGLHMVLSAGKTNGHQDSVACLAGLGISPKDQRMIVESLISIIPPQKDSVTCSFLLRLLRAANMLKVAPALITELEKRVGMQFEQATLQDLLIPGYNNKGETMYDVDLVQRLLEHFLVQEQTEGSSPSRMSPSPSQSMYADIPRGNNNNGGGGGGNNQNAKMRVARLVDSYLTEVARDRNLPLTKFQVLAEALPESARTCDDGLYRAIDSYLKAHPTLSEHERKRLCRVMDCQKLSMDACMHAAQNERLPLRVVVQVLFSEQVKISNALANTSLKESTTLGEAMGTYQPMIPNRKTLIEATPQSFQEGWAAAKKDINTLKFELETVKTKYVELQNEMEVMQRQFEKTGKVKNTP
binding [1]: no binding
binding [2]: no binding

B4: NPH3-S744A, yeast two-hybrid fusion (protein, UniProt Q9FMF5 1-746)
chain: MMWESESDGGVGVGGGGGREYGDGVLSSNKHGGVKTDGFELRGQSWFVATDIPSDLLVKIGDMNFHLHKYPLLSRSGKMNRLIYESRDPDPTILILDDLPGGPEAFELASKFCYGVPVDLTATNISGLRCAAEYLEMTEDLEEGNLIFKTEAFLSYVVLSSWRDSILVLKSCEKLSPWAENLQIVRRCSESIAWKACSNPKGIRWAYTGKAPSPSTTNFAGSSPRWNESKDSSFYCSPSRNTNSQPVPPDWWFEDVSILRIDHFVRVITAIKVKGMRFELLGAVIMHYAGKWLPGLIKEGGVAIAPAMSSAIGGGLGLGGDEMSISCGSNSSGGSSGPDWKGGLHMVLSAGKTNGHQDSVACLAGLGISPKDQRMIVESLISIIPPQKDSVTCSFLLRLLRAANMLKVAPALITELEKRVGMQFEQATLQDLLIPGYNNKGETMYDVDLVQRLLEHFLVQEQTEGSSPSRMSPSPSQSMYADIPRGNNNNGGGGGGNNQNAKMRVARLVDSYLTEVARDRNLPLTKFQVLAEALPESARTCDDGLYRAIDSYLKAHPTLSEHERKRLCRVMDCQKLSMDACMHAAQNERLPLRVVVQVLFSEQVKISNALANTSLKESTTLGEAMGTYQPMIPNRKTLIEATPQSFQEGWAAAKKDINTLKFELETVKTKYVELQNEMEVMQRQFEKTGKVKNTPSSSAWTSGWKKLSKLTKMSGQESHDISSGGEQAGVDHPPPRKPRRWRNAIS
binding [1]: no binding
binding [2]: no binding

B5: NPH3-S744D, yeast two-hybrid fusion (protein, UniProt Q9FMF5 1-746)
chain: MMWESESDGGVGVGGGGGREYGDGVLSSNKHGGVKTDGFELRGQSWFVATDIPSDLLVKIGDMNFHLHKYPLLSRSGKMNRLIYESRDPDPTILILDDLPGGPEAFELASKFCYGVPVDLTATNISGLRCAAEYLEMTEDLEEGNLIFKTEAFLSYVVLSSWRDSILVLKSCEKLSPWAENLQIVRRCSESIAWKACSNPKGIRWAYTGKAPSPSTTNFAGSSPRWNESKDSSFYCSPSRNTNSQPVPPDWWFEDVSILRIDHFVRVITAIKVKGMRFELLGAVIMHYAGKWLPGLIKEGGVAIAPAMSSAIGGGLGLGGDEMSISCGSNSSGGSSGPDWKGGLHMVLSAGKTNGHQDSVACLAGLGISPKDQRMIVESLISIIPPQKDSVTCSFLLRLLRAANMLKVAPALITELEKRVGMQFEQATLQDLLIPGYNNKGETMYDVDLVQRLLEHFLVQEQTEGSSPSRMSPSPSQSMYADIPRGNNNNGGGGGGNNQNAKMRVARLVDSYLTEVARDRNLPLTKFQVLAEALPESARTCDDGLYRAIDSYLKAHPTLSEHERKRLCRVMDCQKLSMDACMHAAQNERLPLRVVVQVLFSEQVKISNALANTSLKESTTLGEAMGTYQPMIPNRKTLIEATPQSFQEGWAAAKKDINTLKFELETVKTKYVELQNEMEVMQRQFEKTGKVKNTPSSSAWTSGWKKLSKLTKMSGQESHDISSGGEQAGVDHPPPRKPRRWRNDIS
binding [1]: no binding
binding [2]: no binding

B6: NPH3-S744E, yeast two-hybrid fusion (protein, UniProt Q9FMF5 1-746)
chain: MMWESESDGGVGVGGGGGREYGDGVLSSNKHGGVKTDGFELRGQSWFVATDIPSDLLVKIGDMNFHLHKYPLLSRSGKMNRLIYESRDPDPTILILDDLPGGPEAFELASKFCYGVPVDLTATNISGLRCAAEYLEMTEDLEEGNLIFKTEAFLSYVVLSSWRDSILVLKSCEKLSPWAENLQIVRRCSESIAWKACSNPKGIRWAYTGKAPSPSTTNFAGSSPRWNESKDSSFYCSPSRNTNSQPVPPDWWFEDVSILRIDHFVRVITAIKVKGMRFELLGAVIMHYAGKWLPGLIKEGGVAIAPAMSSAIGGGLGLGGDEMSISCGSNSSGGSSGPDWKGGLHMVLSAGKTNGHQDSVACLAGLGISPKDQRMIVESLISIIPPQKDSVTCSFLLRLLRAANMLKVAPALITELEKRVGMQFEQATLQDLLIPGYNNKGETMYDVDLVQRLLEHFLVQEQTEGSSPSRMSPSPSQSMYADIPRGNNNNGGGGGGNNQNAKMRVARLVDSYLTEVARDRNLPLTKFQVLAEALPESARTCDDGLYRAIDSYLKAHPTLSEHERKRLCRVMDCQKLSMDACMHAAQNERLPLRVVVQVLFSEQVKISNALANTSLKESTTLGEAMGTYQPMIPNRKTLIEATPQSFQEGWAAAKKDINTLKFELETVKTKYVELQNEMEVMQRQFEKTGKVKNTPSSSAWTSGWKKLSKLTKMSGQESHDISSGGEQAGVDHPPPRKPRRWRNEIS
binding [1]: no binding
binding [2]: no binding

B7: mCherry:NPH3-S744A (protein, UniProt Q9FMF5 1-746)
chain: MMWESESDGGVGVGGGGGREYGDGVLSSNKHGGVKTDGFELRGQSWFVATDIPSDLLVKIGDMNFHLHKYPLLSRSGKMNRLIYESRDPDPTILILDDLPGGPEAFELASKFCYGVPVDLTATNISGLRCAAEYLEMTEDLEEGNLIFKTEAFLSYVVLSSWRDSILVLKSCEKLSPWAENLQIVRRCSESIAWKACSNPKGIRWAYTGKAPSPSTTNFAGSSPRWNESKDSSFYCSPSRNTNSQPVPPDWWFEDVSILRIDHFVRVITAIKVKGMRFELLGAVIMHYAGKWLPGLIKEGGVAIAPAMSSAIGGGLGLGGDEMSISCGSNSSGGSSGPDWKGGLHMVLSAGKTNGHQDSVACLAGLGISPKDQRMIVESLISIIPPQKDSVTCSFLLRLLRAANMLKVAPALITELEKRVGMQFEQATLQDLLIPGYNNKGETMYDVDLVQRLLEHFLVQEQTEGSSPSRMSPSPSQSMYADIPRGNNNNGGGGGGNNQNAKMRVARLVDSYLTEVARDRNLPLTKFQVLAEALPESARTCDDGLYRAIDSYLKAHPTLSEHERKRLCRVMDCQKLSMDACMHAAQNERLPLRVVVQVLFSEQVKISNALANTSLKESTTLGEAMGTYQPMIPNRKTLIEATPQSFQEGWAAAKKDINTLKFELETVKTKYVELQNEMEVMQRQFEKTGKVKNTPSSSAWTSGWKKLSKLTKMSGQESHDISSGGEQAGVDHPPPRKPRRWRNAIS
binding [3]: no binding
